Test results from PubChem BioAssay AID651820 (National Center for Advancing Translational Sciences (NCATS), 2012).
The whole screen tested about 340,000 compounds, of which about 12,000 (3.5%) were called active. Inconclusive results, whose numbers are uncertain, are shown with a selection of clear calls. The call rests on the fitted dose curve; in most records, active means well fitted inhibition curve with a large enough effect; inconclusive means small, poorly fitted or top-dose-only effect, or another doubt; inactive means no such curve, though single readings can be large or run the other way. No potency is given beside an inconclusive call; the fits are too rough.

Assay: qHTS Assay for Inhibitors of Hepatitis C Virus (HCV)
Settings: Huh7.5.1 HCVcc-Cre (HCVcc is cell-culture hepatitis C virus) infection, luciferase reporter, 44 h; activity change, negative = inhibition: at 41.8 µM (top of the series) unless noted
Summary of the method: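 HCVcc-Cre virus at an moi near 0.5 was added right after compound to cells cultured 4 h from seeding (1,000 cells/well). Luciferase activity was determined 44 h later, 15 min after substrate addition at RT.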
On the % scale 0 is the no-effect control and ±100 the full control effect; potency means the concentration at half of the fitted maximal effect; tags describe the fitted curve by direction and shape.

Structure (SMILES) | activity change, negative = inhibition | Potency
Cc1ccc(O)c(C(=O)c2coc(=N)c(C(=O)NC(C)C)c2)c1 | inactive: -11% | 
O=C(Nc1cccc(S(=O)(=O)NC2=NCCCCC2)c1)c1cc(-c2ccc(Cl)cc2)nc2ccccc12 |  | inconclusive [inhibitor, partial curve]
Cc1cccc(NC(=S)NCCc2ccc(Cl)cc2)c1C |  | inconclusive [inhibitor, partial curve]
Cc1ccc(-c2nn(-c3ccccc3)cc2/C=C/C(=O)Nc2nccs2)cc1 |  | inconclusive [inhibitor, single point]
CCc1nc2c(c(=O)c3ccccc3n2C)c(=O)n1-c1ccc(F)cc1 |  | inconclusive [inhibitor, single point]
Cc1ccc2[nH]c(=O)c3cc(C(=O)N(C)c4ccc(C)c(C)c4)sc3c2c1 | inactive: -26.1% | 
CC[C@@]1(C(=O)OC)N[C@H](CN(C)C(=O)c2ccc(C)cc2)[C@@H]2C(=O)N(C)C(=O)[C@@H]21 |  | inconclusive [inhibitor, single point]
CCc1ccc(CN(C)C(=O)c2cc(COc3cccc4cnccc34)on2)cc1 |  | active: 7.94 µM
Cc1c(O)nc(SCC(=O)Nc2cccc(C(F)(F)F)c2)n(-c2ccccc2)c1=O | inactive: -1.71% | 
CC(=O)c1cccc(NCC(=O)Nc2cccc(S(=O)(=O)N3CCCCC3)c2)c1 |  | inconclusive [inhibitor, partial curve]
O=C(NCC1CCCCC1)c1cccc(-c2ccc(O)cc2)c1 |  | inconclusive [inhibitor, partial curve, poor fit]
N#C/C(=C\c1ccc(O)c(O)c1)C(=O)N1CCc2ccccc21 |  | inconclusive [inhibitor, single point]
Cc1cccc2sc(NNC(=O)c3cc(-c4cccs4)nc4ccccc34)nc12 |  | inconclusive [inhibitor, single point]
CCc1noc(C)c1C(=O)Nc1ccccc1N1CCOCC1 | inactive: 3.19% | 
COc1ccc(S(=O)(=O)Nc2ccc3c(c2)OCCO3)cc1Cl |  | active: 11.2 µM
COc1ccccc1Oc1nc(-c2ccccc2)cc(C)c1S(C)(=O)=O |  | inconclusive [inhibitor, single point]
CCC(Oc1ccccc1)C(=O)Nc1ccccc1N1CCCC1 (stereo not drawn) |  | inconclusive [inhibitor, single point]
Brc1ccc(-c2nnc(-c3ccco3)o2)cc1 |  | inconclusive [inhibitor, single point]
CN1CCc2c(sc(NC(=O)c3ccc([N+](=O)[O-])o3)c2C(N)=O)C1 |  | active: 3.98 µM
COc1ccc(NC(=O)C(=O)Nc2cccc3ccccc23)c(OC)c1 |  | inconclusive [inhibitor, partial curve]
COC(=O)CN(c1nc(C)c(Br)c(OC)n1)S(=O)(=O)c1ccc(C)cc1 |  | inconclusive [inhibitor, partial curve]
CCc1nc2ccccc2c(C(=O)OCC(=O)Nc2ccc(NC(C)=O)cc2)c1C |  | inconclusive [inhibitor, single point]
Cc1nc(NCCc2ccc(S(N)(=O)=O)cc2)c2c3c(sc2n1)CCC3 |  | inconclusive [inhibitor, partial curve]

Structure (SMILES) | activity change, negative = inhibition | Potency
CCCc1nc2ccc(NC(C)=O)cc2c(=O)n1Cc1ccccc1Cl | inactive: -16% | 
COc1cc(Cl)ccc1OCc1cc(C(=O)N2CCN(c3ccccn3)CC2)no1 |  | inconclusive [inhibitor, single point]
CSc1ccc(CCNC(=O)CCc2nnc3ccc(N4CCCC4)nn23)cc1 | inactive: -15.2% | 
COc1ccc(-c2cc(C(=O)N(C)Cc3ccc(OC)c(OC)c3OC)c3ccccc3n2)cc1OC |  | inconclusive [inhibitor, partial curve]
Cc1oc(-c2cccc(Cl)c2)nc1CN1CCC(C(=O)N2CCN(c3ccccc3F)CC2)CC1 |  | inconclusive [inhibitor, partial curve]
COCCCNc1ccnc2c(Cl)cccc12 |  | inconclusive [inhibitor, single point]
CCCN(CCC)C(=O)c1cc(-c2ccc3c(c2)OCO3)nc2ccccc12 |  | inconclusive [inhibitor, single point]
O=C1[C@H]2[C@@H](c3ccc(F)cc3)N3C(=O)N(c4ccc(C(F)(F)F)cc4)C(=O)[C@@]3(Cc3ccccc3)[C@H]2C(=O)N1C1CCCCC1 |  | inconclusive [inhibitor, single point]
O=C(c1cccc(S(=O)(=O)Nc2cccc(C(F)(F)F)c2)c1)N1CCOCC1 | inactive: 10.3% | 
CN(C(=O)c1cccc(NC(=O)Cc2cccc(NC(=O)C3CCCN(C(=O)c4ccccc4)C3)c2)c1)C1CC1 (stereo not drawn) | inactive: -1.25% [at 8.37 µM] | 
O=C1c2ccccc2C(=O)C1c1ccnc2ccccc12 | inactive: -9.34% | 
CC(/C=N/NC(=O)c1c(Br)cnn1C)=C\c1ccccc1 | inactive: 18.8% | 
O=C(CN1CCC(n2nnc3ccccc32)CC1)Nc1ccc2c(c1)CCC2 |  | inconclusive [inhibitor, partial curve]
COCCNc1nc(N)c([N+](=O)[O-])c(NC2CCCCC2)n1 |  | inconclusive [inhibitor, single point]
COc1ccc(C(NC(=O)c2ccccc2F)NC(=O)c2ccccc2F)cc1 |  | inconclusive [inhibitor, single point]
CCOc1cccc2sc(Cl)nc12 | inactive: 26.6% | 
OCC[n+]1ccc(/C=C/c2c[nH]c3ccccc23)cc1 |  | active: 3.55 µM
COc1ccccc1NC(=O)c1ccc(S(=O)(=O)N2CCC(C)CC2)cc1 |  | inconclusive [inhibitor, full curve]
CC1Cc2ccccc2N1S(=O)(=O)c1cccc(C(=O)N2CCN(c3ncccn3)CC2)c1 (stereo not drawn) |  | inconclusive [inhibitor, single point]
O=C(CN(C(=O)c1csnn1)c1cccc2c1CCCC2)NCc1ccc(F)cc1 |  | inconclusive [inhibitor, single point]
CN(C)S(=O)(=O)c1ccc(C(=O)N2CCCC2c2nc3ccccc3s2)cc1 (stereo not drawn) | inactive: -6.25% | 
N/C(Cc1ccc([N+](=O)[O-])cc1)=N\OC(=O)C(c1ccccc1)c1ccccc1 |  | inconclusive [inhibitor, single point]
O=C(Nc1nnc(-c2ccccc2)s1)c1ccc(F)cc1 |  | inconclusive [inhibitor, partial curve]

Structure (SMILES) | activity change, negative = inhibition | Potency
Cc1cc(C)cc(OCC(=O)Nc2ccc3c(c2)OCO3)c1 |  | inconclusive [inhibitor, partial curve]
CC1(C)CC(=O)C(C=NCCN2CCN(C(=O)NC34CC5CC(CC(C5)C3)C4)CC2)=C(O)C1 | inactive: 8.9% | 
COC(=O)c1ccc(COc2cccc3c2CCN(Cc2cccc(C)c2)C3=O)o1 |  | inconclusive [inhibitor, single point]
COc1ccc(CCNc2ncnc3nc[nH]c23)cc1OC |  | active: 11.2 µM
CCCOc1ccc(-c2cn3ccccc3n2)cc1 |  | inconclusive [inhibitor, single point]
CC(=O)N1CCN(c2ccccc2NC(=O)c2cc(Br)ccc2Cl)CC1 |  | inconclusive [inhibitor, partial curve, poor fit]
CCN(CC(=O)NCc1ccc(F)cc1)C(=O)CN1CCN(c2cc(Cl)ccc2C)CC1 |  | active: 6.31 µM
CCCOC(=O)C(C)n1c(-c2ccccc2)nc2ccccc2c1=O (stereo not drawn) | inactive: 11.7% | 
CC(NC(=O)OC(C)(C)C)C(=O)Oc1ccc2ccc(=O)oc2c1 (stereo not drawn) |  | inconclusive [inhibitor, full curve, poor fit]
CCc1ccc(-c2cc(C)no2)cc1S(=O)(=O)N1CCN(C(=O)c2ccco2)CC1 |  | inconclusive [inhibitor, single point]
COc1ccc(OCc2cc(C(=O)NC3Cc4ccccc4C3)no2)c(Cl)c1 |  | inconclusive [inhibitor, single point]
COc1ccc(CCN2CCCn3c2nc2c3c(=O)n(Cc3ccccc3F)c(=O)n2C)cc1OC |  | inconclusive [inhibitor, single point]
O=C(Cc1ccc(Cl)cc1)Nc1ccccc1N1CCN(C(=O)c2ccccc2)CC1 |  | inconclusive [inhibitor, single point]
COc1ccc(OC)c(-c2csc(-c3cccs3)n2)c1 |  | inconclusive [inhibitor, partial curve]
Cc1c(C(=O)Nc2ccccc2F)sc2ncn(CC(=O)N3CCOCC3)c(=O)c12 | inactive: 8.66% | 
CCOC(=O)N1CCC(NS(=O)(=O)c2ccccc2)CC1 | inactive: 15.7% | 
COC(=O)c1ccc(NS(=O)(=O)c2ccc3c(c2)n(C)c(=O)n3C)cc1 | inactive: 6.02% | 
Cc1onc(-c2ccccc2Cl)c1C(=O)N1CCN(c2nc3ccccc3s2)CC1 |  | inconclusive [inhibitor, partial curve]
Cc1ccc(SCCC(=O)NCc2ccncc2)cc1 | inactive: 7.48% | 
CC(=O)CN1Cc2ccccc2/C1=N\C(=O)Nc1ccccc1 |  | inconclusive [inhibitor, partial curve, poor fit]
CCCCn1nc(C(=O)N(CC)CC(=O)Nc2c(F)cccc2F)c2ccccc2c1=O |  | inconclusive [inhibitor, single point]
CCOC(=O)c1c(C)nc2c(c(SC)nn2-c2ccccc2)c1N |  | active: 10 µM
